Where “and” joins values, the source holds several entries; their conditions need not be identical. Equal entries are not always repeated. In all, about 200,000 compounds went through this assay and about 4,500 (2.2%) were called active. Inconclusive means that the source gave no clear call. Such entries were picked first, then a sample of the others. The call rests on the fitted dose curve; in most records, active means well fitted inhibition curve with a large enough effect; inconclusive means small, poorly fitted or top-dose-only effect, or effect the other way; inactive means flat fitted curve, though single readings scatter. Potencies beside an inconclusive call are fits to weak or partial responses and may not hold up.
biological target: Cruzipain (Trypanosoma cruzi) (UniProt P25779); assay: qHTS Assay for Promiscuous and Specific Inhibitors of Cruzain (without detergent); conditions: purified cruzain, Z-FR-AMC fluorescence, no detergent; further: nearly all actives have a fitted effect of over 40% in size;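 on max response, negative = inhibition: plate controls were enzyme without inhibitor for no effect and buffer without enzyme for full effect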
Outline: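 Purified cruzain at 1.5 nM, pre-incubated 15 min with compound at room temperature in 100 mM sodium acetate pH 5.5, 5 mM DTT, 0.00005% Triton X-100. Reaction started with 2 uM Z-FR-AMC; AMC fluorescence increase over 60 s gives rate.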
Potency means the concentration at half of the fitted maximal effect; tags describe the fitted curve by direction and shape.

Chain of UniProt P25779 (P25779 whole entry, looked up): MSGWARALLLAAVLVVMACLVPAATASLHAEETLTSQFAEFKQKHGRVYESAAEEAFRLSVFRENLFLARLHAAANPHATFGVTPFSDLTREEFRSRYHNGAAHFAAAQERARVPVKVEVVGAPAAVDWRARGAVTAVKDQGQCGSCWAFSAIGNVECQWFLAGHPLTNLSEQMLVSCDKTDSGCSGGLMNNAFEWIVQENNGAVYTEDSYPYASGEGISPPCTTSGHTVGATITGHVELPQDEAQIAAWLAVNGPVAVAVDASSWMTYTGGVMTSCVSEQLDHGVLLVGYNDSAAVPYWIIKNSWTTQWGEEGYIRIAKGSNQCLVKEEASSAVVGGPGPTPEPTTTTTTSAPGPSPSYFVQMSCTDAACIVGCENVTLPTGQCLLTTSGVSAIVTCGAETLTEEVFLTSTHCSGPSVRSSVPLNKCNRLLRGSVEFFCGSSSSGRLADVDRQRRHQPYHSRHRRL

Structure (SMILES) | Potency | max response, negative = inhibition
Cc1sc(NC(=O)CN2CCOCC2)nc1-c1ccc2c(c1)CCN2S(=O)(=O)c1ccccc1 | inconclusive: 31.6 µM [activator, single point] | –
CCOc1ccc(NC(=O)c2cc3c(=O)n(Cc4cccs4)ccc3nc2C)cc1 | inconclusive: 39.8 µM [activator, single point] | –
O=C(Nc1ccc(Cl)cc1)N1CCN(c2ccc3nnc(-c4ccccc4)n3n2)CC1 | inconclusive: 20 µM [activator, partial curve] | –
O=C(Nc1ccccc1)C1CCN(S(=O)(=O)c2ccc3[nH]c4c(c3c2)CCCCC4)CC1 | active: 15.8 µM | –
COc1ccccc1NC(=O)C1=C(C)Nc2nc(SCc3ccccc3)nn2C1c1cccnc1 (centres undefined) | inconclusive: 39.8 µM [inhibitor, single point] | –
COc1ccc(CCNC(=O)CCn2c(=O)c3ccccc3n(CC(=O)Nc3ccc(C)cc3C)c2=O)cc1OC | – | inactive: -2.23%
COc1ccc2nc(/C(C#N)=C\c3ccc(Oc4ccc([N+](=O)[O-])cn4)cc3)[nH]c2c1 | active: 25.1 µM | –
CCc1c(C)sc2c1CCN(C(=O)Nc1ccc(F)c(Cl)c1)C2c1ccc(F)cc1 (centres undefined) | active: 10 µM | –
CO[C@@H]1CC[C@@]2(C)[C@@H](CC[C@@]3(C)[C@H]2CC=C2[C@H]4CC(C)(C)[C@H](O)[C@@H](OC(C)=O)[C@]4(CO)[C@H](O)C[C@]23C)[C@@]1(C)CO (tested in a mixture with another compound) | inconclusive: 7.94 µM [activator, partial curve] | –
CCOC(=O)c1ccc(S(=O)(=O)N2CCN(S(=O)(=O)CC)CC2)cc1 | inconclusive: 25.1 µM [activator, single point] | –
CCOc1ccc(S(=O)(=O)c2cn(Cc3cc(C)ccc3C)c3ccc(OCC)cc3c2=O)cc1 | active: 15.8 µM | –
O=C(N1CCCCC1)N1CCN(C(=O)N(c2ccccc2)c2ccccc2)CC1 | inconclusive: 20 µM [activator, single point] | –
CCOC(=O)C1CCN(C(=O)CN(c2ccc(OC)c(OC)c2)S(=O)(=O)c2ccccc2)CC1 | inconclusive: 39.8 µM [activator, single point] | –
O=C(Cn1c(=O)sc2ccccc21)Nc1ccc(S(=O)(=O)N2CCCCC2)cc1 | active: 31.6 µM | –
COc1ccccc1C(=O)Nc1nnc(-c2ccc3c(c2)CCCC3)o1 | inconclusive: 25.1 µM [activator, single point] | –
CC(=O)c1cnc(N(C)C)s1 | inconclusive: 20 µM [inhibitor, partial curve, poor fit] | –
CCN(CCCNC(=O)c1cc(Nc2ccccc2OC)nc2ccccc12)c1cccc(C)c1 | – | inactive: -15.1%
COC(=O)CCNC(=O)N1CCN(c2nnc(C)c3c(C)n(-c4ccc(Cl)cc4)nc23)CC1 | – | inactive: -10%
CN1CCc2ccccc2[C@@H]1Cc1ccccc1NC(=O)c1sc2ccccc2c1Cl | – | inactive: -5.66%
COc1ccc(-c2cn3nc(SCC(=O)Nc4ccc(C)c(Cl)c4)ccc3n2)cc1 | – | inactive: 0.13%
Brc1ccc(-c2nnc3ccc(Nc4ccccc4)nn23)cc1 | inconclusive: 20 µM [inhibitor, single point] | –
CCC1CCCCN1c1ccc([N+](=O)[O-])cc1/C=N/NC(=O)Cn1c2ccccc2c(=O)c2ccccc21 (centres undefined) | active: 6.31 µM | –

Structure (SMILES) | Potency | max response, negative = inhibition
COc1ccc(NC(=O)c2cnc[nH]2)cc1 | – | inactive: 0.915%
COc1ccc(S(=O)(=O)c2cc(NS(=O)(=O)c3ccc(Cl)cc3)c(C)c(C)c2O)cc1 | – | inactive: 17.8%
CC(=O)Oc1cc2oc(=O)cc(C)c2cc1OC(C)=O | inconclusive: 25.1 µM [inhibitor, single point] | –
O=C1C2=C(NC(=S)NC2c2ccc(Cl)cc2)NC(c2ccc(Cl)cc2)N1c1ccc(Cl)cc1 (centres undefined) | inconclusive: 39.8 µM [inhibitor, single point] | –
CN(C)S(=O)(=O)c1ccc(C(=O)Nc2nc(-c3ccccc3)c(C(=O)c3ccccc3)s2)cc1 | inconclusive: 39.8 µM [inhibitor, single point] | –
Cc1cccc(C2=NN(c3ccc(Br)cc3)[C@@H](C(=O)N3CCOC3=O)[C@@H]2c2ccc(Cl)cc2)c1 | active: 8.91 µM | –
CCOCCCNC(=O)C(c1ccc(C)cc1)N(Cc1ccc2c(c1)OCO2)C(=O)c1cnccn1 (centres undefined) | inconclusive: 39.8 µM [activator, single point] | –
CCOc1ccc(C(=O)Nc2cc(-c3nc4ccccc4s3)ccc2OC)cc1 | – | inactive: 5.92%
N#Cc1cccc(NC(=O)c2cc3c(s2)-c2ccc(Cl)cc2SC3)c1 | – | inactive: -23.3%
Cc1ccn2c(=O)c(C(=O)NC(C)c3ccccc3)c(O)nc2c1 (centres undefined) | – | inactive: 4.48%
C[C@H](CCC(=O)O)[C@H]1CC[C@H]2[C@@H]3CC[C@@H]4C[C@H](O)CC[C@]4(C)[C@H]3C[C@H](O)[C@]12C | inconclusive: 15.8 µM [activator, full curve] | –
CC(C)CCn1c(=O)c2sccc2n2c(CCCC(=O)NCc3ccc(F)cc3)nnc12 | – | inactive: -4.78%
O=C(Nc1ccc(-c2cn3ccccc3n2)cc1)c1ccc(Cl)cc1 | active: 12.6 µM | –
CCOC(=O)c1[nH]c2c(c1-c1ccccc1)C(=O)CC(c1ccc(OC)c(OC)c1)C2 (centres undefined) | inconclusive: 39.8 µM [activator, single point] | –
COCCNC(=O)C(c1ccc(F)cc1)N(Cc1ccco1)C(=O)CCC(=O)Nc1nccs1 (centres undefined) | inconclusive: 31.6 µM [activator, single point] | –
COc1cc(C(=O)COC(=O)CNC(=O)C2CCCCC2)cc(OC)c1OC | active: 2.51 µM | –
COc1ccccc1-c1cc2nc(C)c(CCC(=O)NCc3cccc(Cl)c3)c(C)n2n1 | inconclusive: 25.1 µM [activator, partial curve] | –
CCN(CC)S(=O)(=O)c1ccc2c(c1)c(=O)c(C(=O)N1CCN(c3cccc(C)c3)C(C)C1)cn2C (centres undefined) | inconclusive: 25.1 µM [activator, single point] | –
Cc1ccc(CNC(=O)CN(c2ccc(C)cc2)S(=O)(=O)c2c(C)nn(C)c2C)cc1 | inconclusive: 39.8 µM [activator, single point] | –
Cc1cccc(CNc2ncncc2-c2ccccc2Cl)c1 | – | inactive: 4.88%
CC[C@@H](CO)NC(=O)[C@H]1C=C2c3cccc4c3c(cn4C)C[C@H]2N(C)C1 | inconclusive: 31.6 µM [inhibitor, partial curve, poor fit] and inconclusive: 25.1 µM [activator, partial curve] | –
CCn1c(CCNC(=O)c2ccc(OC)cc2)nnc1SCc1ccc(Cl)cc1Cl | inconclusive: 39.8 µM [activator, single point] | –

Structure (SMILES) | Potency | max response, negative = inhibition
Cc1noc(C)c1C(=O)N1CCC2(CC1)CN(c1ccccn1)C2 | – | inactive: -9.55%
O=C(/C=C/NCC(=O)c1ccccc1)c1ccc(Br)cc1 | inconclusive: 25.1 µM [inhibitor, single point] | –
CC#CCOC(=O)C1=CCCN(C)C1 | – | inactive: -5.13%
CC(C)(C)c1onc(OCP(=O)(O)O)c1CC(N)C(=O)O (centres undefined) | inconclusive: 0.158 µM [inhibitor, full curve, poor fit] | –
O=C(NCCOc1ccccc1)c1cc(C(=O)NCCOc2ccccc2)cc([N+](=O)[O-])c1 | – | inactive: -2.26%
COc1ccc(Oc2nc(Oc3ccc(OC)cc3)nc(Oc3ccc(OC)cc3)n2)cc1 | active: 3.16 µM | –
COC(=O)c1c(NC(=O)CS(=O)(=O)c2ccc(C)cc2)sc2c1CCCC2 | inconclusive: 31.6 µM [inhibitor, single point] | –
Brc1cc(Oc2cc(Br)c(Br)c(Br)c2Br)c(Br)c(Br)c1Br | inconclusive: 3.16 µM [inhibitor, full curve] | –
OCCOCCOCCn1c2ccccc2c2ccccc21 | inconclusive: 39.8 µM [activator, single point] | –
COc1ccc(-c2nsc3c(SCC(=O)Nc4cc(C)ccc4C)ncnc23)cc1 | inconclusive: 5.01 µM [inhibitor, single point] | –
COc1ccccc1NS(=O)(=O)c1cc(NC(=O)c2cc3ccccc3oc2=O)ccc1C | inconclusive: 39.8 µM [inhibitor, single point] | –
COc1ccc(N2CC(NC(=O)c3c(F)cccc3Cl)CC2=O)cc1OC (centres undefined) | – | inactive: 2.5%
Cc1cccc(-n2cnc(C(=O)N/N=C/c3ccccc3)c2)n1 | inconclusive: 0.0316 µM [inhibitor, full curve, poor fit] | –
Clc1ccc(CSc2nnc(-c3ccccn3)n2Cc2ccco2)c(Cl)c1 | inconclusive: 7.94 µM [activator, partial curve] | –
CCOC(=O)c1cnc(SC)nc1Nc1cccc(F)c1 | inconclusive: 31.6 µM [activator, single point] | –
Cc1ccc(CNC(=O)C(C)n2ccc3cc(S(=O)(=O)N4CCCC4)ccc32)cc1 (centres undefined) | – | inactive: 2.2%
Cc1ccccc1-n1c(O)c(/C=N/Nc2nc3c(c(=O)n(C)c(=O)n3C)n2C)c(=O)[nH]c1=S | inconclusive: 39.8 µM [activator, single point] | –
CCOc1cccc(-c2nnc3sc(-c4ccco4)nn23)c1 | inconclusive: 39.8 µM [inhibitor, single point] | –
O=C(CCn1c(=S)[nH]c2ccccc2c1=O)NCCCN1CCCC1=O | – | inactive: 7.76%
Cc1cccc(Nc2ccccc2)c1 | – | inactive: -6.82%
